The values below come from PMC4336329 (PLoS ONE, 2015).

The campaign covered roughly 310,000 compounds. About 2,200 (0.71%) showed an effect of 50% or more. Effects have a minus sign here. The list shows a part of the results.

The target in this experiment is human ether-à-go-go-related gene (hERG) potassium channel (human, UniProt Q12809). Description: primary screen, population patch clamp on CHO cells stably expressing hERG.
human ether-à-go-go-related gene (hERG) potassium channel, sequence (Q12809 whole entry, looked up): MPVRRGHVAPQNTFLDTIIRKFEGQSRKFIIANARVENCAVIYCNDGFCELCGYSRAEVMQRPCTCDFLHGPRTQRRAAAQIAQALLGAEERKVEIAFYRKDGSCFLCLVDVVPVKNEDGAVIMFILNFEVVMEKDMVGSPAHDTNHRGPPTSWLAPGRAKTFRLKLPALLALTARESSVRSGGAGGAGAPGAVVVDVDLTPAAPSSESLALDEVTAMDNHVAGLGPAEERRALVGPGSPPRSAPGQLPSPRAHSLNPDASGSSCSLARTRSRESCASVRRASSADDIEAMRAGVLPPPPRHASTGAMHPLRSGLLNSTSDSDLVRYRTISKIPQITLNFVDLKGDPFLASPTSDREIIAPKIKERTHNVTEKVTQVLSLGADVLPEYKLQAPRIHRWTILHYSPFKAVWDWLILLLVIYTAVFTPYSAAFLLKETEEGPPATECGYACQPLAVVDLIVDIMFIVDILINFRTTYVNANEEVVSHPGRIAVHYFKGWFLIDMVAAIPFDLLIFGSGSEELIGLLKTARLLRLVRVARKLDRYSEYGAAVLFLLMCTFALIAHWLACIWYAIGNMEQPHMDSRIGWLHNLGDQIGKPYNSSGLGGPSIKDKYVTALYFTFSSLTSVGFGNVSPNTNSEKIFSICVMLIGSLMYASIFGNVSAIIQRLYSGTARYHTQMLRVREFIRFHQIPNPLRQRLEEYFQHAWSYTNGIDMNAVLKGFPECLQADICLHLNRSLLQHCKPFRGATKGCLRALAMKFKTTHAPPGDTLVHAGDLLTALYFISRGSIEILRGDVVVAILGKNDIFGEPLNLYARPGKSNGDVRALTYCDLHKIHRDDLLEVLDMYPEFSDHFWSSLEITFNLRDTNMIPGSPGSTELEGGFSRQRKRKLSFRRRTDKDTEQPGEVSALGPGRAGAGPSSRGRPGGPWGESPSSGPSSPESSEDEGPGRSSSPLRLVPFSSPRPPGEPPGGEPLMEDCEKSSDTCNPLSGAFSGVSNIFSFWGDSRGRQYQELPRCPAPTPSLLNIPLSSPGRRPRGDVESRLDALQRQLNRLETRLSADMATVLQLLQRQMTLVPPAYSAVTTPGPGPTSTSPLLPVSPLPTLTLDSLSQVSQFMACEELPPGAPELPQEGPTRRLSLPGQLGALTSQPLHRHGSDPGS
Take `CCOC(=O)C1(C)C=C(Nc2ccc(OCC)cc2)C(=O)N1c1ccccc1` (centres unmarked): the “hERG current change (%, negative = inhibition) at 1uM” value is given as 16.7%.
As for `CN1CC=C2C(C#N)=C(N)C(C#N)(C#N)C(Cc3ccccc3)C2C1` (centres unmarked), the figure is 6.55%.
As for `CC(NS(=O)(=O)c1ccc(CCC(=O)NCc2cccnc2)cc1)c1ccccc1` (centres unmarked), the figure is 8.24%.
The result for `Nc1ccc2cc(Br)ccc2c1` reads 4.09%; that for `COc1ccc(C(=O)Nc2ccccc2C(=O)NCc2ccco2)cc1OC`, 17.4%; that for `O=C(Cc1ccccc1[N+](=O)[O-])NCc1ccco1`, 11.7%.
In the case of `Cc1ccc(S(=O)(=O)N2CCN(C(=O)N3CCCC3)CC2)cc1`, the “hERG current change (%, negative = inhibition) at 1uM” value amounted to 14.5%.
Regarding `COc1ccc(S(=O)(=O)N(C)CC(=O)Nc2cccc(C(C)=O)c2)cc1C`, the “hERG current change (%, negative = inhibition) at 1uM” value is recorded as -7.17%.
The result for `Cc1cc(=O)[nH]c(=O)n1Cc1ccccc1` reads 8.55%.
The result for `COc1ccc(N2C(=O)CC(Sc3n[nH]c(-c4ccc(C)cc4)n3)C2=O)cc1` (centres unmarked) reads -1.35%; that for `CC1CCC(C(C)C)C(OC(=O)Cn2c(-c3ccc(Cl)cc3)[n+](C)c3ccccc32)C1.[Cl-]` (centres unmarked), -58%; that for `O=C1NC(=S)N(c2ccc(F)cc2)C(=O)/C1=C/c1ccccc1O`, 8.73%.
The result for `Cc1ccc(/C=N/n2c(-c3ccco3)n[nH]c2=S)s1` reads 12.5%; that for `COc1ccc(C(c2c(O)c3ccccc3oc2=O)c2c(C)n(C)n(-c3ccccc3)c2=O)cc1` (centres unmarked), 8.94%; that for `CCOc1ccc(CN2CCC(C(=O)N3CCN(c4ccccc4F)CC3)CC2)cc1OC.O=C(O)C(=O)O`, -20.7%.
Regarding `Clc1ccc(Cc2nn3c(Cn4nnc5ccccc54)nnc3s2)cc1`, the “hERG current change (%, negative = inhibition) at 1uM” value was -7.82%.
As for `O=C(COC(=O)c1ccc(Cl)nc1)NC(=O)c1ccccc1`, the figure is 6.02%; as for `O=C(CN1CCCCC1)N1CCN(S(=O)(=O)c2ccccc2)C1`, 14.3%; as for `CCN1C(=O)c2ccccc2S(=O)c2ccc(C(=O)N3CCOCC3)cc21` (centres unmarked), 6.01%.
The result for `O=C(CN1C(=O)NC2(CCCC2)C1=O)Nc1cc(Cl)ccc1N1CCOCC1` reads 6.96%; that for `NC(=O)Cc1ccc(Nc2nnc(-c3ccccc3)c3ccccc23)cc1`, 7.76%.
Regarding `O=C(c1cccnc1)N1CCN(S(=O)(=O)c2cccs2)CC1`, the “hERG current change (%, negative = inhibition) at 1uM” value was -29.5%.
As for `O=C(/C=C/c1ccncc1)c1ccc(NC(=O)c2ccccc2F)cc1`, the figure is 10.7%; as for `O=C(NCc1cccnc1)c1cn(-c2ccccc2)nc1-c1cccs1`, 3.42%.
The result for `N#Cc1ccc(OCC(O)CS(=O)(=O)c2ccc(F)cc2)cc1` (centres unmarked) reads -3.69%; that for `Cc1noc(C)c1C(=O)Nc1ccc(N(C)C)cc1`, 17.6%.
The result for `COc1ccc(C(C)(C)C)cc1NC(=O)Nc1ccc2c(c1)OCO2` reads 22.5%; that for `O=C(NCCCN=C1NS(=O)(=O)c2ccccc21)c1ccco1`, 1.64%.
With `COc1ccc(/C=N/N2CCN(c3ccc(Cl)cc3)CC2)cc1O`, the “hERG current change (%, negative = inhibition) at 1uM” value is 11.8%.
The result for `Cc1cc([N+](=O)[O-])nn1Cc1noc(C(=O)NCc2ccc3c(c2)OCO3)n1` reads 12%; that for `CC(C)C[C@H](N)c1cn([C@@H](Cc2cc3ccccc3[nH]2)C(=O)N2CCNCC2)nn1.Cl`, 12.8%; that for `COC(=O)C1CCN(C(=O)CC(NC(=O)C(F)(F)F)c2cccs2)CC1` (centres unmarked), 4.19%.
As to `COc1cc(COC(=O)Oc2ccc(CNC(C)=O)cc2OC)c([N+](=O)[O-])cc1OC`, the “hERG current change (%, negative = inhibition) at 1uM” value was 9.74%.
As for `Cc1oc2cc(O)cc(O)c2c(=O)c1-c1ccc2c(c1)OCCCO2`, the figure is 13.7%.
The result for `[O-][n+]1c2ccccc2[n+]([O-])c2cc(O)ccc21` reads 7.15%; that for `NS(=O)(=O)c1ccc(CCNC(=O)C2(S(=O)(=O)c3ccc(Cl)cc3)CC2)cc1`, 12.9%; that for `Cc1nc(NS(=O)(=O)c2ccccc2)sc1C(=O)NN`, 11.8%.
`COc1cccc(C(NC(C)=O)c2ccc3cccnc3c2O)c1` (centres unmarked): the “hERG current change (%, negative = inhibition) at 1uM” value came out at 15.7%.
As for `C/C(=N/NC(=O)C1CC1(c1ccccc1)c1ccccc1)c1ccco1` (centres unmarked), the figure is 10.7%; as for `Cc1[nH]n(-c2ccccc2)c(=O)c1/C=N/c1nn[nH]n1`, 9.66%.
As for `Cc1csc(=O)n1CCC(=O)OCC(=O)c1ccc(Br)cc1`, the figure is 6.19%; as for `COc1ccc(C(C)NC(=O)CCc2ccccc2)cc1` (centres unmarked), 11.6%.
Consider `CC(=O)c1c(C)[nH]c(C(=O)CN2CCN(S(=O)(=O)c3ccccc3)CC2)c1C`, for which the “hERG current change (%, negative = inhibition) at 1uM” value worked out at 13.1%.
Consider `Cc1ccc(C(=O)N(CN2CCCC2=O)c2ccccc2)cc1C`, for which the “hERG current change (%, negative = inhibition) at 1uM” value stood at 10.7%.
